# Test results as given in the supplement of paper PMC8728848.
# The list shows a part of the results.
# Legend:
# Assay in all cases: glycan array binding signal (z-score within array); higher = stronger binding
# Settings in all cases: glycan notation: IUPAC condensed, linker removed
# [1] = target: Neu5Ac(a2-6)Gal(b1-4)GlcNAc(b1-2)Man(a1-3)[Neu5Ac(a2-6)Gal(b1-4)GlcNAc(b1-2)Man(a1-6)]Man(b1-4)GlcNAc(b1-4)GlcNAc
# In short: (§1)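 The binding signal is a Z-score computed within each array. Data were drawn from 3228 arrays in the Consortium for Functional Glycomics database, restricted to those with a known protein sequence. Scores were averaged over arrays of the same protein sequence at different concentrations or buffers, and over linkers, and negative values can be taken as non-binding.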
# [2] = target: Neu5Ac(a2-6)Gal(b1-4)GlcNAc(b1-2)Man(a1-6)Man(b1-4)GlcNAc(b1-4)GlcNAc
# In short: as §1
# [3] = target: Neu5Ac(a2-6)Gal(b1-4)GlcNAc(b1-2)Man(a1-6)[Gal(b1-4)GlcNAc(b1-2)Man(a1-3)]Man(b1-4)GlcNAc(b1-4)GlcNAc
# In short: as §1
# [4] = target: Neu5Ac(a2-6)Gal(b1-4)GlcNAc(b1-2)Man(a1-6)[GlcNAc(b1-2)Man(a1-3)]Man(b1-4)GlcNAc(b1-4)GlcNAc
# In short: as §1
# [5] = target: Neu5Ac(a2-6)Gal(b1-4)GlcNAc(b1-2)Man(a1-6)[Man(a1-3)]Man(b1-4)GlcNAc(b1-4)GlcNAc
# In short: as §1
# [6] = target: Neu5Ac(a2-6)Gal(b1-4)GlcNAc(b1-3)Gal(b1-3)GlcNAc
# In short: as §1
# [7] = target: Neu5Ac(a2-6)Gal(b1-4)GlcNAc(b1-3)Gal(b1-4)GlcNAc
# In short: as §1
# [8] = target: Neu5Ac(a2-6)Gal(b1-4)GlcNAc(b1-3)Gal(b1-4)GlcNAc(b1-3)Gal(b1-4)GlcNAc
# In short: as §1
# [9] = target: Neu5Ac(a2-6)Gal(b1-4)GlcNAc(b1-3)Gal(b1-4)[Fuc(a1-3)]GlcNAc(b1-3)Gal(b1-4)[Fuc(a1-3)]GlcNAc
# In short: as §1
# [10] = target: Neu5Ac(a2-6)Gal(b1-4)GlcNAc(b1-3)GalNAc
# In short: as §1
# [11] = target: Neu5Ac(a2-6)Gal(b1-4)GlcNAc6S
# In short: as §1
# [12] = target: Neu5Ac(a2-6)GalNAc
# In short: as §1
# [13] = target: Neu5Ac(a2-6)GalNAc(b1-4)GlcNAc
# In short: as §1
# [14] = target: Neu5Ac(a2-6)GlcNAc(b1-4)GlcNAc
# In short: as §1
# [15] = target: Neu5Ac(a2-6)GlcNAc(b1-4)GlcNAc(b1-4)GlcNAc
# In short: as §1
# [16] = target: Neu5Ac(a2-8)Neu5Ac
# In short: as §1
# [17] = target: Neu5Ac(a2-8)Neu5Ac(a2-3)Gal(b1-4)Glc
# In short: as §1
# [18] = target: Neu5Ac(a2-8)Neu5Ac(a2-3)[GalNAc(b1-4)]Gal(b1-4)Glc
# In short: as §1
# [19] = target: Neu5Ac(a2-8)Neu5Ac(a2-8)Neu5Ac
# In short: as §1
# [20] = target: Neu5Ac(a2-8)Neu5Ac(a2-8)Neu5Ac(a2-3)Gal(b1-4)Glc
# In short: as §1
# [21] = target: Neu5Ac(a2-8)Neu5Ac(a2-8)Neu5Ac(a2-3)[GalNAc(b1-4)]Gal(b1-4)Glc
# In short: as §1
# [22] = target: Neu5Ac(a2-8)Neu5Ac(a2-8)Neu5Ac(a2-8)Neu5Ac(a2-3)[GalNAc(b1-4)]Gal(b1-4)Glc
# In short: as §1
# [23] = target: Neu5Ac(b2-6)Gal(b1-4)GlcNAc
# In short: as §1
# [24] = target: Neu5Ac(b2-6)GalNAc
# In short: as §1
# [25] = target: Neu5Ac9Ac(a2-3)Gal(b1-3)GlcNAc
# In short: as §1
# [26] = target: Neu5Ac9Ac(a2-3)Gal(b1-4)GlcNAc
# In short: as §1
# [27] = target: Neu5Ac9Ac(a2-6)Gal(b1-4)GlcNAc
# In short: as §1
# [28] = target: Neu5Gc(a2-3)Gal(b1-3)GlcNAc
# In short: as §1
# [29] = target: Neu5Gc(a2-3)Gal(b1-3)[Fuc(a1-4)]GlcNAc
# In short: as §1
# [30] = target: Neu5Gc(a2-3)Gal(b1-4)Glc
# In short: as §1
# [31] = target: Neu5Gc(a2-3)Gal(b1-4)GlcNAc
# In short: as §1
# [32] = target: Neu5Gc(a2-3)Gal(b1-4)[Fuc(a1-3)]GlcNAc
# In short: as §1
# [33] = target: Neu5Gc(a2-6)Gal(b1-4)GlcNAc
# In short: as §1
# [34] = target: Neu5Gc(a2-6)GalNAc
# In short: as §1
# [35] = target: Neu5Gc(b2-6)Gal(b1-4)GlcNAc
# In short: as §1
binder,measurement,setting,value
"ZG-16 (Homo sapiens), O60844 (protein) IQARSSSYSGEYGSGGGKRFSHSGNQLDGPITALRVRVNTYYIVGLQVRYGKVWSDYVGGRNGDLEEIFLHPGESVIQVSGKYKWYLKKLVFVTDKGRYLSFGKDSGTSFNAVPLHPNTVLRFISGRSGSLIDAIGLHWDVYPTSCSRCSRGSDDDDKAEPRGPTIKPCPPCKCPAPNLLGGPSVFIFPPKIKDVLMISLSPIVTCVVVDVSEDDPDVQISWFVNNVEVHTAQTQTHREDYNSTLRVVSALPIQHQDWMSGKEFKCKVNNKDLPAPIERTISKPKGSVRAPQVYVLPPPEEEMTKKQVTLTCMVTDFMPEDIYVEWTNNGKTELNYKNTEPVLDSDGSYFMYSKLRVEKKNWVERNSYSCSVVHEGLHNHHTTKSFSRTPGKRTYHHHHHHARKLTR",glycan array binding signal (z-score),[1],-0.164
same,glycan array binding signal (z-score),[2],-0.209
same,glycan array binding signal (z-score),[3],-0.245
same,glycan array binding signal (z-score),[4],-0.227
same,glycan array binding signal (z-score),[5],-0.222
same,glycan array binding signal (z-score),[6],-0.176
same,glycan array binding signal (z-score),[7],-0.213
same,glycan array binding signal (z-score),[8],-0.182
same,glycan array binding signal (z-score),[9],-0.129
same,glycan array binding signal (z-score),[10],-0.181
same,glycan array binding signal (z-score),[11],-0.211
same,glycan array binding signal (z-score),[12],-0.229
same,glycan array binding signal (z-score),[13],-0.162
same,glycan array binding signal (z-score),[14],-0.218
same,glycan array binding signal (z-score),[15],-0.207
same,glycan array binding signal (z-score),[16],-0.156
same,glycan array binding signal (z-score),[17],-0.184
same,glycan array binding signal (z-score),[18],-0.156
same,glycan array binding signal (z-score),[19],-0.153
same,glycan array binding signal (z-score),[20],-0.127
same,glycan array binding signal (z-score),[21],-0.172
same,glycan array binding signal (z-score),[22],-0.15
same,glycan array binding signal (z-score),[23],-0.221
same,glycan array binding signal (z-score),[24],-0.139
same,glycan array binding signal (z-score),[25],0.058
same,glycan array binding signal (z-score),[26],-0.179
same,glycan array binding signal (z-score),[27],-0.234
same,glycan array binding signal (z-score),[28],-0.062
same,glycan array binding signal (z-score),[29],-0.132
same,glycan array binding signal (z-score),[30],-0.195
same,glycan array binding signal (z-score),[31],-0.2
same,glycan array binding signal (z-score),[32],-0.11
same,glycan array binding signal (z-score),[33],-0.228
same,glycan array binding signal (z-score),[34],-0.17
same,glycan array binding signal (z-score),[35],-0.151
